# Targets with the largest changes are over-represented here; the source holds about 21,000 in all.
# Compound: CC1Cc2ccccc2N1C(=O)C1CCCN(C1)C(=O)CCl (mixture of isomers) [TRIM25 ligand 11 (diastereomer mixture)]
# Assay: probe-labelled cysteine peptide fold change vs DMSO (competition) (log2 fold change); higher = less target engagement (more negative = stronger competition)
# Settings: 10 µM; THP-1; incubation time: 4 h
# 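Note: competitive chemoproteomic profiling in live THP-1 cells with an iodoacetamide desthiobiotin (IA-DTB) probe, comparing probe-labelled peptide intensities in compound-treated cells against DMSO-treated controls.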
# UniProt Q13111, sequence (Q13111 whole entry, looked up): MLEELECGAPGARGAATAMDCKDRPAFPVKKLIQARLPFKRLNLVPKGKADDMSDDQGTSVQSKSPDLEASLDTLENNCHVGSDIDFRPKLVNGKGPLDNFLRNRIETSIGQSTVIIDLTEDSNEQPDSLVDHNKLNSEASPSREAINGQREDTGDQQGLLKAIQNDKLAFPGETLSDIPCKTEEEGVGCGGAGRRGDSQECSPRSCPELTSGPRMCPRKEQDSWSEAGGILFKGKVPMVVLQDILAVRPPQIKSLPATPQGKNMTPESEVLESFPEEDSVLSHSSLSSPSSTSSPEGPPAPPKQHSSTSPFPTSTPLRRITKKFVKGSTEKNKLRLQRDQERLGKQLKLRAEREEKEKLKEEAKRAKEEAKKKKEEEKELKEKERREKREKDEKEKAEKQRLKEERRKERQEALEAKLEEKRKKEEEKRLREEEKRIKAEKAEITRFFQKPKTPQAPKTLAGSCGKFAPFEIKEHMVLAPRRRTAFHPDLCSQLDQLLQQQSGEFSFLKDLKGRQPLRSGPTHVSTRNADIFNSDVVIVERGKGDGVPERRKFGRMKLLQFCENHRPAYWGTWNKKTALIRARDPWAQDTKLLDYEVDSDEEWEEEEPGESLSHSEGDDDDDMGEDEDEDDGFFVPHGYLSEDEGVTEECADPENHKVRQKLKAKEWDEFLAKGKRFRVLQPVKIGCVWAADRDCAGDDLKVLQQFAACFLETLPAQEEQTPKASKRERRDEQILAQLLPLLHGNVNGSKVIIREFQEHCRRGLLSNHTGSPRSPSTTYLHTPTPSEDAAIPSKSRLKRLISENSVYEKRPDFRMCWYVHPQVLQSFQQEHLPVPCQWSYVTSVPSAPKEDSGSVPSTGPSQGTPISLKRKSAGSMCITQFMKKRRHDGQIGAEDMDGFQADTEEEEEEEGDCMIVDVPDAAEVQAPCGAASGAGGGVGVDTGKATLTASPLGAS
# UniProt A5YKK6, sequence (A5YKK6 whole entry, looked up): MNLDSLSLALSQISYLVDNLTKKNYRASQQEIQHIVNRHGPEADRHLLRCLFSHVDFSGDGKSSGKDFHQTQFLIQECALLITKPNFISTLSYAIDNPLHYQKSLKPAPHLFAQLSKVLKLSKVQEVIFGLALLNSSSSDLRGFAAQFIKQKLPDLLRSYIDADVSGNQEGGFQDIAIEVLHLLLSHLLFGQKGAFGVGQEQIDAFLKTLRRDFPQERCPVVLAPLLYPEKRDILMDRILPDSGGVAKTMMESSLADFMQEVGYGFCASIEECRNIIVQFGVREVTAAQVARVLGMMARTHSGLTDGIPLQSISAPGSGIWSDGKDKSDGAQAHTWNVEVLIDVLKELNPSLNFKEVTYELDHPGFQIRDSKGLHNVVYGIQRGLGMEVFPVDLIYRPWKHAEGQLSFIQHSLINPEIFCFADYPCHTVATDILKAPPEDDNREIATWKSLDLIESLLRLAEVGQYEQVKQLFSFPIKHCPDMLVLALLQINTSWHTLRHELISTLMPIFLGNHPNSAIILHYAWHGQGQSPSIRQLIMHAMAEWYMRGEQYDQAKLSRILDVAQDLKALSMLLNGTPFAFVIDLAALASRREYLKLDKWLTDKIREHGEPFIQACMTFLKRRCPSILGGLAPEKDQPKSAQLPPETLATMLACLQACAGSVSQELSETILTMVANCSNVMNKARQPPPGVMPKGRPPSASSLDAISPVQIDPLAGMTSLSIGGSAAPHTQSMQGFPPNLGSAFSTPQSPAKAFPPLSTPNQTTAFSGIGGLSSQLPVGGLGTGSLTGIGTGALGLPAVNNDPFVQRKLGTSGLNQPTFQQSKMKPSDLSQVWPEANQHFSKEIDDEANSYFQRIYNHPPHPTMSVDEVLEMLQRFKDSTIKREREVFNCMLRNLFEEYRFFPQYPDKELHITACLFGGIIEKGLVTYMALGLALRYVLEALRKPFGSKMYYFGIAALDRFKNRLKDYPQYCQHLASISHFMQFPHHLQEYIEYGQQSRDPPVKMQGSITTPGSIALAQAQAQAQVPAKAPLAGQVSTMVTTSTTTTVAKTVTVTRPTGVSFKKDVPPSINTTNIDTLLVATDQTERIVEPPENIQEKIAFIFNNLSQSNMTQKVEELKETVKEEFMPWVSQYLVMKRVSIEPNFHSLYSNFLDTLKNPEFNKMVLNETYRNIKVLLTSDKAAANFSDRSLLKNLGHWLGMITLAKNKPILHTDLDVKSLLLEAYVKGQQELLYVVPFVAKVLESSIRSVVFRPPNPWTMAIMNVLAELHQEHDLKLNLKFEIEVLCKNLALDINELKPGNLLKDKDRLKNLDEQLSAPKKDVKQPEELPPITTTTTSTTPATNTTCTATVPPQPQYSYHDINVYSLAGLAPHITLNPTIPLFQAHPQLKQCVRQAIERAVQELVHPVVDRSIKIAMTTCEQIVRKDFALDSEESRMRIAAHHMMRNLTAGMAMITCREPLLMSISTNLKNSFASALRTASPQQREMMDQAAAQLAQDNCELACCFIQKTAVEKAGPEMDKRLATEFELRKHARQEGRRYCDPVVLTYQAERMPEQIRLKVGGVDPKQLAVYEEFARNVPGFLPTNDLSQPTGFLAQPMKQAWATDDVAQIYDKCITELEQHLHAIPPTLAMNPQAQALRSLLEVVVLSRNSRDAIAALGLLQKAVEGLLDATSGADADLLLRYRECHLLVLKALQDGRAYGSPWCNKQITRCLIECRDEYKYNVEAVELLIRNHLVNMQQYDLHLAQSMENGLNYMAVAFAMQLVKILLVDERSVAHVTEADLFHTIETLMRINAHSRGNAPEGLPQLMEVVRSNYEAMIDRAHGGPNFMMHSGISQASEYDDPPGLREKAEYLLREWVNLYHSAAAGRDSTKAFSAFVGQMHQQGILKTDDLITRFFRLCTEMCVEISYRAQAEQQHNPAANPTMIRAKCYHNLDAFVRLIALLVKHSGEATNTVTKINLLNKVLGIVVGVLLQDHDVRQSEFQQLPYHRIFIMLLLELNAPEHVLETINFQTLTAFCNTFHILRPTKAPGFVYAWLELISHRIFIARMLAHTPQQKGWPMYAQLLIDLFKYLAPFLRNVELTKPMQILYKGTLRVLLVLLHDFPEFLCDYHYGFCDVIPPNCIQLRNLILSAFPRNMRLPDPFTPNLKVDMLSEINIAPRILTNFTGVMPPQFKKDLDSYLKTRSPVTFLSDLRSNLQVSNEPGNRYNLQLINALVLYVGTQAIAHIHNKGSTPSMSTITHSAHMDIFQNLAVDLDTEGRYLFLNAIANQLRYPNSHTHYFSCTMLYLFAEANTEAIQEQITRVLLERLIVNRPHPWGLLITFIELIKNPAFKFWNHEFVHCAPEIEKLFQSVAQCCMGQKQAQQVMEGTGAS
# UniProt Q00610, sequence (Q00610 whole entry, looked up): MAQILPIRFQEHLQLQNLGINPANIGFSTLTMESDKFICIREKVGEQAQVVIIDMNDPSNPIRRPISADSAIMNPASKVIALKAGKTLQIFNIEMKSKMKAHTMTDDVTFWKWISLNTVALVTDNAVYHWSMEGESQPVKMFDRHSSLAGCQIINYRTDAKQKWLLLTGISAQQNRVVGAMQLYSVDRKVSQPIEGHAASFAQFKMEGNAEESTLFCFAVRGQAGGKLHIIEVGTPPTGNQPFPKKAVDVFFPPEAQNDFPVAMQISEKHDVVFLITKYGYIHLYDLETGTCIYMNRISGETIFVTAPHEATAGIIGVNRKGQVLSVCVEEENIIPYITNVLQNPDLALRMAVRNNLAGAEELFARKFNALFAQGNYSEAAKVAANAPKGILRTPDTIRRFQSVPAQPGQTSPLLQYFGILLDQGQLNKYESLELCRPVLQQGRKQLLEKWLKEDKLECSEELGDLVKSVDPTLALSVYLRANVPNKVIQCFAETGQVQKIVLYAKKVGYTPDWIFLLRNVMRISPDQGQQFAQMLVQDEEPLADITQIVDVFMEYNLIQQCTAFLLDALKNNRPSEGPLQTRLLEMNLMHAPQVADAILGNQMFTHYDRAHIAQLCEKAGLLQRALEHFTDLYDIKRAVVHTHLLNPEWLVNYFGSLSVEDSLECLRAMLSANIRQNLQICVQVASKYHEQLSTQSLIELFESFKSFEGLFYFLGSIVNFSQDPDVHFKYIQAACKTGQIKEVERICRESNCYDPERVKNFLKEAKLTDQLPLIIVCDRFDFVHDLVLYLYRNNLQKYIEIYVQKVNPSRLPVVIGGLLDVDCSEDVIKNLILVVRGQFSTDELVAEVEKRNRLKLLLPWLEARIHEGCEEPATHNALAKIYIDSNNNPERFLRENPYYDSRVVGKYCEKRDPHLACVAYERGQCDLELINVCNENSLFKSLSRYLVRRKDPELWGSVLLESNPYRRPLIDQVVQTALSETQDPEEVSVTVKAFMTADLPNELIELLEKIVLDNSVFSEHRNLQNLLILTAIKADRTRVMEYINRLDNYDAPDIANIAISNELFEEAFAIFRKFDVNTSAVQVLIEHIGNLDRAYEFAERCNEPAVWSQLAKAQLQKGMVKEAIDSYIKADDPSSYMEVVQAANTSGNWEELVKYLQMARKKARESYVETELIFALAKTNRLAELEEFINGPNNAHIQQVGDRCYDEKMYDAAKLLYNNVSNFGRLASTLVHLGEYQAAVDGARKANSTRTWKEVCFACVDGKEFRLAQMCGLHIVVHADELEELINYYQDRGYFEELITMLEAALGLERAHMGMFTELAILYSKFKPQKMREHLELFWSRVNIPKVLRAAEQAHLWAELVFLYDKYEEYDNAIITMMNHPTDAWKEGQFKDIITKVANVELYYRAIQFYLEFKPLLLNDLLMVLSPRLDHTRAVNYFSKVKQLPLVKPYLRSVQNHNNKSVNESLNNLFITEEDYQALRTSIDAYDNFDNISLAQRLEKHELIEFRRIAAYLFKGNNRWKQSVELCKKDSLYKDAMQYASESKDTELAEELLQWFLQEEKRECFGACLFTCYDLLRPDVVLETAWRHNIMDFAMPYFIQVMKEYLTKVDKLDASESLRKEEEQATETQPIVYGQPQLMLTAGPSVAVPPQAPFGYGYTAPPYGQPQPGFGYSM
row,Target,probe-labelled cysteine peptide fold change
1,CHD1L_Q86WJ1_123_FAPGLSCVTYAGDKEER (UniProt Q86WJ1),-0.0411
2,CHAF1A_Q13111_7_MLEELECGAPGAR (UniProt Q13111),0.122
3,COPA_P53621_41_MCTLIDKFDEHDGPVR (UniProt P53621),0.0108
4,C2orf69_Q8N8R5_230_SSPSHTTNGCQGEK (UniProt Q8N8R5),0.035
5,CCT6A_P40227_406_NAIDDGCVVPGAGAVEVAMAEALIK (UniProt P40227),-0.00478
6,CAPZB_P47756_206_QMEKDETVSDCSPHIANIGR (UniProt P47756),-0.856
7,CLTC_Q00610_436_YESLELCR (UniProt Q00610),0.0725
8,COMT_P21964_207_DRYLPDTLLLEECGLLR (UniProt P21964),-0.048
9,CCT8_P50990_347_LTPPVLEEMGHCDSVYLSEVGDTQVVVFK (UniProt P50990),0.0456
10,CASP6_P55212_68_GTCADRDNLTR (UniProt P55212),-0.0456
11,CHEK2_O96017_108_LWALQDGFANLECVNDNYWFGR (UniProt O96017),0.00573
12,CAD_P27708_736_NSVTGGTAAFEPSVDYCVVK (UniProt P27708),0.124
13,CNOT1_A5YKK6_219_CPVVLAPLLYPEKR (UniProt A5YKK6),-0.629
14,CAPZB_P47756_62_DYLLCDYNRDGDSYR (UniProt P47756),-0.649
15,COPB1_P53618_248_CIYNLLQSSSPAVKYEAAGTLVTLSSAPTAIK (UniProt P53618),-0.337
16,CCAR2_Q8N163_644_PRGEASEDLCEMALDPELLLLR (UniProt Q8N163),0.562

# Source: the supplement of paper PMC12067093, “Discovery and optimisation of a covalent ligand for TRIM25 and its application to targeted protein ubiquitination” (Chemical Science, 2025)
